# Measurements from PubChem BioAssay (Tox21).
# Inconclusive results are not listed. Calls follow the shape of the dose curve; as a rule, active = well fitted curve in the direction sought with a large enough effect in the repeat runs; inconclusive = weak or mixed curves; inactive = no such curve, though single readings can be large; an effect the other way counts as inactive or inconclusive. Where a structure was tested more than once in an assay, its records may differ in their call. A number of entries come with more than one value. This list holds those alone. An entry can have further records. Values that stand side by side are repeats (runs, samples, wells, individuals or studies). A tag in brackets gives the origin of a value. The letters are not those of the source and start again with each entry.
# Legend:
# [1] = A CellTox Green Cytotoxicity Assay to monitor cytotoxicity in HEK293 cells - 16 hour (AID 1224888); also: nearly all actives have a fitted effect of over 35% in size
# How it was run: (§1)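 Each value comes from one timepoint of a single continuous run in which HEK293 cells with CellTox Green were exposed to compound for up to 40 h at 37 C, dye fluorescence rising with cell death.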
# [2] = A CellTox Green Cytotoxicity Assay to monitor cytotoxicity in HEK293 cells - 24 hour (AID 1224875); also: nearly all actives have a fitted effect of over 45% in size
# How it was run: as §1
# [3] = qHTS RealTime-Glo MT Cell Viability Assay in HEK293 cells - 0 hour (AID 1224880); also: nearly all actives have a fitted effect of over 45% in size
# How it was run: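 qHTS format; HEK293 cells with NanoLuc/prosubstrate reagent, 37 C/5% CO2 for 5 h pre-dosing; compounds 23 nL in DMSO; luminescence at each time point reflects viable cells.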
# [4] = qHTS assay to identify small molecule antagonists of the peroxisome proliferator-activated receptor gamma (PPARg) signaling pathway - cell viability counter screen (AID 743194); also: nearly all actives have a fitted effect of over 55% in size
# Source text: U.S. Tox21 Program National Center for Advancing Translational Sciences [NCATS] NIH Chemical Genomics Center [NCGC] U.S. Environmental Protection Agency [EPA] National Institutes of Environmental Health Sciences [NIEHS] National Toxicology Program [NTP] U.S. Food and Drug Administration [FDA] Tox21 Assay Overview: The peroxisome proliferator-activated receptors (PPARs) are lipid-activated transcription factors of the nuclear receptor superfamily with three distinct subtypes namely PPAR alpha, PPAR delta (also called PPAR beta) and PPAR gamma (PPARg). All these subtypes heterodimerize with Retinoid X receptor (RXR) and these heterodimers regulate transcription of various genes. […]
# Tox21 Assay Protocol Summary: PPARg-bla cells were dispensed at 3000 cells/5uL/well in 1536-well black wall/clear bottom plates using a Multidrop Combi (Thermo Fisher Scientific, Waltham, MA) dispenser. […] The assay plates were incubated at room temperature for 1 h and fluorescence intensity was measured by an Envision plate reader (PerkinElmer, Shelton, CT). For cell viability readout that measures cytotoxicity, 4 ul/well of CellTiter-Glo reagent was added into the assay plates using a Flying Reagent Dispenser. After 30 min incubation at room temperature, the luminescence intensity in the plates was measured using a ViewLux plate reader (PerkinElmer).
# [5] = qHTS assay to identify small molecule agonists of the constitutive androstane receptor (CAR) signaling pathway - cell viability counter screen (AID 1224836); also: nearly all actives have a fitted effect of over 45% in size
# How it was run: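 Counter screen multiplexed with the CAR reporter readout: HepG2 cells co-transfected with hCAR and the CYP2B6-2.2kb construct receive a 15-concentration compound series and 0.75 uM PK11195 (final), then CellTiter-Fluor fluorescence is read after 23 h.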
# [6] = qHTS assay to identify small molecule antagonists of the constitutive androstane receptor (CAR) signaling pathway - cell viability counter screen (AID 1224837); also: nearly all actives have a fitted effect of over 45% in size
# How it was run: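 Fluorescence from CellTiter-Fluor served as the viability signal. Human hepatoma HepG2 cells stably bearing hCAR and CYP2B6-2.2kb received compound plus CITCO (50 nM final) for 23 hr.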
# [7] = qHTS assay to identify small molecule antagonists of the progesterone receptor (PR) signaling pathway - cell viability counter screen (AID 1346798); also: nearly all actives have a fitted effect of over 50% in size
# How it was run: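 Same-well multiplex: after 16 hr at 37C with compound and R5020 stimulation, HEK293T cells carrying a UAS-bla reporter received LiveBLAzer substrate (2 hr RT), then CellTiter-Glo (30 min RT) for luminescent viability.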
# Potency is read from the fitted curve at half-maximal effect.
smiles,measurement,setting,value
Cc1ccc(C(C)(C)C)c(O)c1,Potency,[1],active: 23.8 µM [sample A] and inactive [sample B]
Nc1ccc(N)c(Cl)c1,Potency,[2],inactive [sample A] and active: 38.9 µM [sample B]
same,Potency,[1],inactive [sample A] and active: 38.9 µM [sample B]
O=C(CCCN1CCC(O)(c2ccc(Cl)cc2)CC1)c1ccc(F)cc1,Potency,[2],active: 49 µM [sample A] and inactive [sample B]
same,Potency,[1],active: 49 µM [sample A] and inactive [sample B]
CC1(C)O[C@@H]2C[C@H]3[C@@H]4C[C@H](F)C5=CC(=O)C=C[C@]5(C)[C@@]4(F)[C@@H](O)C[C@]3(C)[C@]2(C(=O)CO)O1,Potency,[3],active: 19.5 µM [sample A] and inactive [sample B]
O=Cc1ccccc1C=O,Potency,[4],active: 27.5 µM [sample A] and inactive [sample B]
same,Potency,[5],active: 61.1 µM [sample A] and inactive [sample B]
same,Potency,[6],active: 61.1 µM [sample A] and inactive [sample B]
Cc1ccc([N+](=O)[O-])c(C)c1,Potency,[5],active: 13.7 µM [sample A] and inactive [sample B]
same,Potency,[6],active: 12.2 µM [sample A] and inactive [sample B]
same,Potency,[7],active: 24.3 µM [sample A] and inactive [sample B]
